{"source": "paper PMC4336329", "about": "(PLoS ONE, 2015)", "note": "Among all 310,000 compounds or so, about 2,200 (0.71%) showed an effect of 50% or more. Effects have a minus sign here. The list shows a part of the results."}
{"biological_target": "human ether-à-go-go-related gene (hERG) potassium channel (human, UniProt Q12809)", "sequence (Q12809 whole entry, looked up)": "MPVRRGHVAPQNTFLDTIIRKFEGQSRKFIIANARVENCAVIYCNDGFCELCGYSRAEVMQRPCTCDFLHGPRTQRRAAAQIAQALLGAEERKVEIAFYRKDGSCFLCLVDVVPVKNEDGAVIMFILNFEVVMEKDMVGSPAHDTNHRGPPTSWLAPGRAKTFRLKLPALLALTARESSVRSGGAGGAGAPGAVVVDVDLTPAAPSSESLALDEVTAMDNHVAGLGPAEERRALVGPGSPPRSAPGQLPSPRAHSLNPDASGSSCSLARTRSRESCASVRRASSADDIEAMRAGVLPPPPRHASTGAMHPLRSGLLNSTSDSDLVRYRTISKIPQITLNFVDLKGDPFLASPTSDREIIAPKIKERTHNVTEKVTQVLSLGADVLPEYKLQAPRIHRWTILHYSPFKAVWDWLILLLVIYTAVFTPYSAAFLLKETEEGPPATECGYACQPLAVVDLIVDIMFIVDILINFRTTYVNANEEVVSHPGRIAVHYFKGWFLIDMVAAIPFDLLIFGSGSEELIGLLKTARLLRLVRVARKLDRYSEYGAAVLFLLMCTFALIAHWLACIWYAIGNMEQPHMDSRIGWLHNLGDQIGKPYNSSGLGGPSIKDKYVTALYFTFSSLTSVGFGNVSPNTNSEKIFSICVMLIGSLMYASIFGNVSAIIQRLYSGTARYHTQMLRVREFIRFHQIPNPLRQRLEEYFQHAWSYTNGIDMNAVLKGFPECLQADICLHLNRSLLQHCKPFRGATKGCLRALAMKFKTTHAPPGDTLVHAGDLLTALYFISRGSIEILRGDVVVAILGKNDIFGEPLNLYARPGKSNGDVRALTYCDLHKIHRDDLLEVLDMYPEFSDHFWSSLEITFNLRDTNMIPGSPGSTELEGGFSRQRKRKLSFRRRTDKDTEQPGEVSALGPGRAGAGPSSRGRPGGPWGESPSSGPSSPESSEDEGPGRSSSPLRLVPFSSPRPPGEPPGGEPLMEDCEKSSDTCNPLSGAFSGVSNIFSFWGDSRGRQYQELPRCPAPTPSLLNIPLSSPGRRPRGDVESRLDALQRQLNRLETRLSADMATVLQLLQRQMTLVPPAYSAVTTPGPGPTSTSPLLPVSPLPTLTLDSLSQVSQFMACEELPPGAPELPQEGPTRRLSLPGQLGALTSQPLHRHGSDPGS", "experiment": "primary screen, population patch clamp on CHO cells stably expressing hERG", "units": {"hERG current change (%, negative = inhibition) at 1uM": "%"}}
{"molecule": "Cc1cc(C)n(-c2ccc(NC(=O)C3CCN(Cc4cnc(C)s4)CC3)cc2)n1", "hERG current change (%, negative = inhibition) at 1uM": -2.33}
{"molecule": "Cc1c(C(=O)Nc2cccc(S(=O)(=O)N3CCCC3)c2)oc2ccccc12", "hERG current change (%, negative = inhibition) at 1uM": 10.5}
{"molecule": "Cc1ncc(CO)c(/C=N/NC(=O)c2ccccc2Br)c1O", "hERG current change (%, negative = inhibition) at 1uM": 14.9}
{"molecule": "C=CCn1c(N)c(C(=O)NCCC2=CCCCC2)sc1=S", "hERG current change (%, negative = inhibition) at 1uM": 6.87}
{"molecule": "CC(C)c1ccc(OCc2nc(-c3ccccn3)no2)c(Br)c1", "hERG current change (%, negative = inhibition) at 1uM": 1.9}
{"molecule": "COCCn1c(SCC(=O)Nc2ccccc2OC)nc2ccccc21", "hERG current change (%, negative = inhibition) at 1uM": -1.43}
{"molecule": "CS(=O)(=O)N1CCN(C(=O)c2cc(-c3cccs3)nc3ccccc23)CC1", "hERG current change (%, negative = inhibition) at 1uM": -2.31}
{"molecule": "Cn1cc([N+](=O)[O-])c(C(=O)Nc2cc(Oc3cccnc3)cc([N+](=O)[O-])c2)n1", "hERG current change (%, negative = inhibition) at 1uM": 18.6}
{"molecule": "Cc1ccc(C)c(CSc2nnc(-c3cccnc3)o2)c1", "hERG current change (%, negative = inhibition) at 1uM": 2.8}
{"molecule": "O=C1c2ccccc2C(=O)N1CCOc1ccccc1Br", "hERG current change (%, negative = inhibition) at 1uM": 15.1}
{"molecule": "COc1cc(C2NC(=O)NC(C)=C2C(=O)OCc2ccc(C)cc2)cc(OC)c1OC", "note": "(centres unmarked)", "hERG current change (%, negative = inhibition) at 1uM": 8.86}
{"molecule": "Cc1cccc(C(=O)N(Cc2nc3ccccc3c(=O)[nH]2)C2CCCC2)c1", "hERG current change (%, negative = inhibition) at 1uM": 7.7}
{"molecule": "Cc1ccc(NC(=S)N2CCN(c3ccccn3)CC2)c(C)c1", "hERG current change (%, negative = inhibition) at 1uM": 12.7}
{"molecule": "CCOc1cccc(C(=O)Nc2ccc3[nH]ncc3c2)c1", "hERG current change (%, negative = inhibition) at 1uM": 21.7}
{"molecule": "CCc1c(C)nc(N2CCOCC2)[nH]c1=O", "hERG current change (%, negative = inhibition) at 1uM": -9.74}
{"molecule": "Cc1ccc(OCCn2c(CCCO)nc3ccccc32)cc1", "hERG current change (%, negative = inhibition) at 1uM": 4.73}
{"molecule": "CC(=O)Nc1ccc(C(=S)NCc2ccco2)cc1", "hERG current change (%, negative = inhibition) at 1uM": 6.64}
{"molecule": "COC(=O)[C@@]12CCCN1[C@H](c1ccc(-c3ccc4c(c3)OCO4)c(OC)c1)[C@H]1C(=O)N(C)C(=O)[C@H]12.O=C(O)C(F)(F)F", "hERG current change (%, negative = inhibition) at 1uM": 9.32}
{"molecule": "Cc1nc(C)c(-c2csc(Nc3ccccn3)n2)s1", "hERG current change (%, negative = inhibition) at 1uM": 13.8}
{"molecule": "COc1ccc(-c2nc(CS(=O)CC(=O)N3CCOCC3)c(C)o2)cc1OC", "note": "(centres unmarked)", "hERG current change (%, negative = inhibition) at 1uM": 14.7}
{"molecule": "Cc1ccccc1NC(=O)NCc1ccccn1", "hERG current change (%, negative = inhibition) at 1uM": 12.2}
{"molecule": "CCCCOc1ccc(CC2CCC(=O)NC2=O)cc1", "note": "(centres unmarked)", "hERG current change (%, negative = inhibition) at 1uM": 2.91}
{"molecule": "Cc1cc(C)n(-c2ccc(C(=O)Nc3cccc(S(=O)(=O)N(C)C)c3)cc2)n1", "hERG current change (%, negative = inhibition) at 1uM": 16.5}
{"molecule": "CCSc1nc(N)c(C#N)c(-c2ccccc2Cl)c1C#N", "hERG current change (%, negative = inhibition) at 1uM": 4.08}
{"molecule": "CC[C@H]1CC2CN3CCc4c([nH]c5cc(OC)ccc45)[C@](C(=O)OC)(C2)[C@H]13", "hERG current change (%, negative = inhibition) at 1uM": 12.9}
{"molecule": "O=C(CN1C(=O)C2(OCCO2)c2cc(Br)ccc21)NO", "hERG current change (%, negative = inhibition) at 1uM": 22.8}
{"molecule": "O=C(COC(=O)CNS(=O)(=O)c1ccc(F)c(F)c1F)Nc1ccc(OC(F)F)cc1", "hERG current change (%, negative = inhibition) at 1uM": -10.3}
{"molecule": "COc1ccc(/C=N/N2C(=O)CSC2=S)cc1Br", "hERG current change (%, negative = inhibition) at 1uM": 6.81}
{"molecule": "COc1ccc(S(=O)(=O)N(CCC#N)Cc2ccco2)cc1OC", "hERG current change (%, negative = inhibition) at 1uM": 16.9}
{"molecule": "Cc1cccc([C@@H]2[C@@H]3C(=O)N(Cc4ccccc4)C(=O)[C@@H]3[C@]3(Cc4ccc(Cl)cc4)C(=O)N(c4ccc(Br)cc4)C(=O)N23)c1", "hERG current change (%, negative = inhibition) at 1uM": 20.4}
{"molecule": "O=C1CCC(C(=O)N2CCCC(C(=O)c3ccc4c5c(cccc35)CC4)C2)=NN1", "note": "(centres unmarked)", "hERG current change (%, negative = inhibition) at 1uM": -10.1}
{"molecule": "O=C1COc2ccc(C(=O)COC(=O)CCSc3ccccc3)cc2N1", "hERG current change (%, negative = inhibition) at 1uM": 5.32}
{"molecule": "COc1ccc(C)cc1NC(=O)C(OC(=O)C1CC1)c1ccccc1", "note": "(centres unmarked)", "hERG current change (%, negative = inhibition) at 1uM": -0.0939}
{"molecule": "O=C(NC1(C(F)(F)F)N=C2SCCN2C1=O)c1ccccc1F", "note": "(centres unmarked)", "hERG current change (%, negative = inhibition) at 1uM": 10.9}
{"molecule": "CCn1c(C)nc2cc(C(=O)OC(C(F)(F)C(F)F)C(F)(F)C(F)F)ccc21", "hERG current change (%, negative = inhibition) at 1uM": 1.32}
{"molecule": "COc1ccc(/C=C/C(=O)c2ccccc2)cc1COc1ccc(F)cc1", "hERG current change (%, negative = inhibition) at 1uM": 0.167}
{"molecule": "CCOC(=O)CCn1nc(-c2ccc(Cl)cc2)cc1N", "hERG current change (%, negative = inhibition) at 1uM": 12.9}
{"molecule": "COc1ccc(NS(=O)(=O)c2ccc(NC(=S)NC(=O)/C=C/c3ccccc3)cc2)nn1", "hERG current change (%, negative = inhibition) at 1uM": 6.19}
{"molecule": "CCOC(=O)c1[nH]c2cc(OC)c(OC)cc2c1NC(=O)c1nonc1C", "hERG current change (%, negative = inhibition) at 1uM": 6.18}
{"molecule": "COc1ccc(CN(C(C)=O)c2cccc(C)c2C)cc1", "hERG current change (%, negative = inhibition) at 1uM": 0.308}
{"molecule": "Cc1cc(C)c(C(=O)CC(=O)c2ccccc2Cl)c(O)c1", "hERG current change (%, negative = inhibition) at 1uM": 14.4}
{"molecule": "O=[N+]([O-])c1cccnc1NCc1cccs1", "hERG current change (%, negative = inhibition) at 1uM": 11.9}
{"molecule": "CCN1CCN(Cc2c(O)ccc3c(=O)c(-c4ccc(OC)c(OC)c4)c(C)oc23)CC1", "hERG current change (%, negative = inhibition) at 1uM": 5.51}
{"molecule": "O=C(c1cccc(C(F)(F)F)c1)N1CCCCCC1", "hERG current change (%, negative = inhibition) at 1uM": -3.6}
{"molecule": "COc1cccc(CNC(=O)CCC(=O)N2CCOCC2)c1", "hERG current change (%, negative = inhibition) at 1uM": 19.1}
{"molecule": "CCCCN(C(=O)Cn1nnc2ccccc21)C(C(=O)NCCOC)c1ccc(OC)cc1OC", "note": "(centres unmarked)", "hERG current change (%, negative = inhibition) at 1uM": 11.2}
{"molecule": "Cc1cccc(CC2S/C(=N/N=C/c3ccco3)NC2=O)c1", "note": "(centres unmarked)", "hERG current change (%, negative = inhibition) at 1uM": 10.4}
{"molecule": "O=C(CS(=O)(=O)Cc1ccccc1)N1CCN(Cc2ccc3c(c2)OCO3)CC1", "hERG current change (%, negative = inhibition) at 1uM": -2.9}
{"molecule": "CC1CC(C)CN(C(=O)c2ccc(NS(=O)(=O)c3ccc4[nH]c(=O)[nH]c4c3)cc2)C1", "note": "(centres unmarked)", "hERG current change (%, negative = inhibition) at 1uM": -4.06}
{"molecule": "O=C(COC(=O)CCc1ccc(S(=O)(=O)N2CCOCC2)cc1)NCc1ccc(Cl)cc1", "hERG current change (%, negative = inhibition) at 1uM": 5.61}
{"molecule": "Cc1c(Br)c([N+](=O)[O-])nn1CC(=O)N(C)Cc1ccccc1", "hERG current change (%, negative = inhibition) at 1uM": -3.11}
{"molecule": "COc1ccc(-c2cc(C(=O)N3CCOCC3)c3cc(C)ccc3n2)cc1", "hERG current change (%, negative = inhibition) at 1uM": 8.75}
{"molecule": "CCOP(=O)(OCC)C(NC(=O)c1cccc(C)c1)C(Cl)(Cl)Cl", "note": "(centres unmarked)", "hERG current change (%, negative = inhibition) at 1uM": 13.2}
{"molecule": "COCc1[nH]nc2c1C(c1ccc(F)cc1F)C(C#N)=C(N)O2", "note": "(centres unmarked)", "hERG current change (%, negative = inhibition) at 1uM": 11.1}
{"molecule": "Cc1ccc(-c2c3c(=O)n(C)c(=O)n(C)c3cn2-n2cnnc2)cc1", "hERG current change (%, negative = inhibition) at 1uM": -2.01}
{"molecule": "CCOC(=O)NC(Nc1ccc(S(N)(=O)=O)cc1)(C(=O)OCC)C(F)(F)F", "note": "(centres unmarked)", "hERG current change (%, negative = inhibition) at 1uM": 7.75}
